The other results are listed elsewhere or left out.
What follows are sequences tested against T1, MBP-FoxP1dN (Mus musculus, UniProt P58462 326-579) (assay: PD-seq (MBP pull-down with sequencing); 20 mM Tris-HCl pH 7.5, 100 mM NaCl, 1.5 mM MgCl2, 0.4 uM protein, 0.1 uM dsDNA library, 30 min, room temperature, amylose pull-down; high values mean tight binding). Details: protein: recombinant; tags: His6-MBP; chain copies: 2; dsDNA, one strand shown.
T1 sequence: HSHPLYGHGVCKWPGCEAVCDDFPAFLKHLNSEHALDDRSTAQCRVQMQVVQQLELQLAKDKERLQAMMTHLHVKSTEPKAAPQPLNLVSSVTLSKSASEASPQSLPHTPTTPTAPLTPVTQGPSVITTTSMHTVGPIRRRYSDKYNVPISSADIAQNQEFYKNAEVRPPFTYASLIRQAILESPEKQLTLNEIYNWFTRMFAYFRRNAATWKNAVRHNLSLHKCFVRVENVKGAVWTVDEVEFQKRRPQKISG
Procedure, shortened: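 Protein and DNA were mixed at 0.4 µM and 0.1 µM and held for 30 min at room temperature in Tris pH 7.5 buffer with NaCl and MgCl2; the protein was a His6-MBP-tagged, N-terminally truncated mouse FoxP3 or FoxP1 fragment from E. coli, and the DNA a Klenow-filled double-stranded degenerate library. Amylose resin captured the complexes, which were washed three times. Binding is read as reads-per-million enrichment of pull-down versus input after Illumina sequencing, with replicates pooled.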

Q: For “GATGATTGTTCTCCCAGCTGATGAATTAACATAATCGAGTAAACAAATTTTCCTAATCTTTCTGTTCAAGCGCCATCTAC”, which binding signal is on record?
A: Its binding signal is 1.45 RPM ratio (pull-down/input).

Q: “GATGATTGTTCTCCCAGCTGATGAATTAGTACCGTCGAGTAAACAAATTTTCCTAATCTTTCTGTTCAAGCGCCATCTAC” was tested. Which binding signal did it give?
A: Its binding signal is 0.989 RPM ratio (pull-down/input).

Q: “GATGATTGTTCTCCCAGCTGATGAATTATGTCCTTCGAGTAAACAAATTTTCCTAATCTTTCTGTTCAAGCGCCATCTAC” was tested. Which binding signal did it give?
A: The binding signal was 1.05 RPM ratio (pull-down/input).

Q: Which binding signal does the source give for “GATGATTGTTCTCCCAGCTGATGAATTCCAATAGTCGAGTAAACAAATTTTCCTAATCTTTCTGTTCAAGCGCCATCTAC” here?
A: Its binding signal is 0.816 RPM ratio (pull-down/input).

Q: With “GATGATTGTTCTCCCAGCTGATGAATTTACTGCATCGAGTAAACAAATTTTCCTAATCTTTCTGTTCAAGCGCCATCTAC” as the sequence, how does the binding signal read?
A: Its binding signal is 1.33 RPM ratio (pull-down/input).

Q: “GATGATTGTTCTCCCAGCTGATGAATTCTACTGGTCGAGTAAACAAATTTTCCTAATCTTTCTGTTCAAGCGCCATCTAC” was tested. Which binding signal did it give?
A: Its binding signal is 0.898 RPM ratio (pull-down/input).

Q: For “GATGATTGTTCTCCCAGCTGATGAATTCCATGGTTCGAGTAAACAAATTTTCCTAATCTTTCTGTTCAAGCGCCATCTAC”, which binding signal is on record?
A: Its binding signal is 0.732 RPM ratio (pull-down/input).

Q: For “GATGATTGTTCTCCCAGCTGATGAATTAAATCGTTCGAGTAAACAAATTTTCCTAATCTTTCTGTTCAAGCGCCATCTAC”, which binding signal is on record?
A: Its binding signal is 0.876 RPM ratio (pull-down/input).

Q: With “GATGATTGTTCTCCCAGCTGATGAATTGGTACATTCGAGTAAACAAATTTTCCTAATCTTTCTGTTCAAGCGCCATCTAC” as the sequence, how does the binding signal read?
A: The binding signal was 1.1 RPM ratio (pull-down/input).

Q: For “GATGATTGTTCTCCCAGCTGATGAATTGTTTCCCTCGAGTAAACAAATTTTCCTAATCTTTCTGTTCAAGCGCCATCTAC”, which binding signal is on record?
A: The binding signal was 1.41 RPM ratio (pull-down/input).

Q: Which binding signal does the source give for “GATGATTGTTCTCCCAGCTGATGAATTATTTCGATCGAGTAAACAAATTTTCCTAATCTTTCTGTTCAAGCGCCATCTAC” here?
A: Its binding signal is 1.08 RPM ratio (pull-down/input).

Q: With “GATGATTGTTCTCCCAGCTGATGAATTCCATTGCTCGAGTAAACAAATTTTCCTAATCTTTCTGTTCAAGCGCCATCTAC” as the sequence, how does the binding signal read?
A: Its binding signal is 0.853 RPM ratio (pull-down/input).

Q: Which binding signal does the source give for “GATGATTGTTCTCCCAGCTGATGAATTCAATTGATCGAGTAAACAAATTTTCCTAATCTTTCTGTTCAAGCGCCATCTAC” here?
A: Its binding signal is 1.02 RPM ratio (pull-down/input).

Q: How did the binding signal turn out when “GATGATTGTTCTCCCAGCTGATGAATTGCGGGCTTCGAGTAAACAAATTTTCCTAATCTTTCTGTTCAAGCGCCATCTAC” was run?
A: The binding signal was 0.984 RPM ratio (pull-down/input).

Q: With “GATGATTGTTCTCCCAGCTGATGAATTCTCTGACTCGAGTAAACAAATTTTCCTAATCTTTCTGTTCAAGCGCCATCTAC” as the sequence, how does the binding signal read?
A: The binding signal was 0.801 RPM ratio (pull-down/input).

Q: How did the binding signal turn out when “GATGATTGTTCTCCCAGCTGATGAATTTTAGCACTCGAGTAAACAAATTTTCCTAATCTTTCTGTTCAAGCGCCATCTAC” was run?
A: The binding signal was 0.872 RPM ratio (pull-down/input).

Q: For “GATGATTGTTCTCCCAGCTGATGAATTGATATTATCGAGTAAACAAATTTTCCTAATCTTTCTGTTCAAGCGCCATCTAC”, which binding signal is on record?
A: Its binding signal is 1.92 RPM ratio (pull-down/input).

Q: With “GATGATTGTTCTCCCAGCTGATGAATTAGGGTAATCGAGTAAACAAATTTTCCTAATCTTTCTGTTCAAGCGCCATCTAC” as the sequence, how does the binding signal read?
A: Its binding signal is 1.25 RPM ratio (pull-down/input).
